In all, about 94,000 compounds went through this assay and about 6,200 (6.6%) were called active. Inconclusive means that the source gave no clear call. Such entries were picked first, then a sample of the others. The call rests on the fitted dose curve; in most records, active means well fitted inhibition curve with a large enough effect; inconclusive means small, poorly fitted or top-dose-only effect; inactive means flat fitted curve, though single readings scatter. Where the call is inconclusive, the potency comes from a doubtful curve fit.
Experiment: Cytotoxic Profiling in HEK 293 Cell Line of Diverse Libraries Using Quantitative High-Throughput Screening; further: nearly all actives have a fitted effect of over 60% in size
Settings: HEK 293 viability, ATP luminescence (CellTiter-Glo), 48-72 h; activity change, negative = cytotoxicity: at 115 µM (top of the series) unless noted; series mostly up to 115 µM
Outline: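 ATP-coupled CellTiter-Glo luminescence served as viability read-out, recorded 10 min after reagent addition at room temperature. HEK 293 cells, 250 cells/well, had been incubated with pintool-transferred compound for 48 or 72 hr at 37 degree Celsius.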
On the % scale 0 is the no-effect control and ±100 the full control effect; potency means the concentration at half of the fitted maximal effect; tags describe the fitted curve by direction and shape.

Row | Structure (SMILES) | Potency | activity change, negative = cytotoxicity | outcome
1 | COc1ccc(F)cc1-c1ncc2c(n1)OCCN(c1cccc(C(F)(F)F)c1)C2=O | inconclusive: 89.1 µM [inhibitor, partial curve] | – | –
2 | NCC(=O)N1CCCC2(Cc3ccccc3CN2C(=O)c2cccc(Cl)c2)C1 (stereo not drawn) | active: 70.8 µM | – | –
3 | CN1C(=O)CO[C@H](c2ccc(NC(=O)c3cccc(F)c3)cc2)[C@H]1CO | inconclusive: 126 µM [inhibitor, single point] | – | –
4 | O=C(NCCc1ccc(Cl)cc1)C1CCN(c2nccc(Nc3ccccc3F)n2)CC1 | inconclusive: 31.6 µM [inhibitor, full curve, poor fit] | – | –
5 | O=C(Nc1cccs1)N1CCNc2cnc(Nc3cccc(F)c3)nc2C1 | inconclusive: 100 µM [inhibitor, partial curve] | – | –
6 | O=C(CC1CCc2ccccc21)N1CCN(S(=O)(=O)N2CCCC2)CC1 (stereo not drawn) | inconclusive: 56.2 µM [inhibitor, partial curve, poor fit] | – | –
7 | Cc1noc(-c2cccc(F)c2)c1C(=O)NCc1cccc(Cl)c1 | inconclusive: 79.4 µM [inhibitor, single point] | – | –
8 | COc1ccc(CNc2nccc(CCC(F)(F)F)n2)cc1OC | inconclusive: 50.1 µM [inhibitor, partial curve, poor fit] | – | –
9 | Cc1ccc([S+](=O)([O-])NC2CCCN(c3ccc4nnc(-c5ccccc5)n4n3)C2)cc1 (stereo not drawn) | active: 25.1 µM | – | –
10 | COc1ccc(-c2onc(C)c2C(=O)NC2CCCc3ccccc32)cc1 (stereo not drawn) | inconclusive: 35.5 µM [inhibitor, partial curve, poor fit] | – | –
11 | O=C(NCc1cccs1)c1nc(-c2ccccc2)c2ccccn12 | inconclusive: 100 µM [inhibitor, partial curve] | – | –
12 | CC[C@H]1CN(C(=O)c2ccnc(Cl)c2)CC[C@H]1CC(=O)NCc1cccc2ccccc12 | – | inactive: -6.8% | –
13 | CN1CCC(NC(=O)C2(CCO)CCN(Cc3ccccc3)C2)CC1 (stereo not drawn) | inconclusive: 89.1 µM [inhibitor, single point] | – | –
14 | CN1CCCC2(C1)CN(C)c1ccc(C(=O)Nc3ccc(F)cc3)cc12 (stereo not drawn) | inconclusive: 126 µM [inhibitor, single point] | – | –
15 | Cc1cc(CNC(=O)c2cc(-c3ccncc3)cc3c2OCCN3C)no1 | inconclusive: 112 µM [inhibitor, partial curve, poor fit] | – | –
16 | CC1(c2ccccc2)N(Cc2ccc(O)cc2)C(=O)OC12CCN(C(=O)c1ccccc1)CC2 (stereo not drawn) | inconclusive: 79.4 µM [inhibitor, single point] | – | –
17 | Cc1noc(C)c1[S+](=O)([O-])NCCNC(=O)c1cccc(-c2ccsc2)c1 | inconclusive: 50.1 µM [inhibitor, partial curve, poor fit] | – | –
18 | CN1C[C@H]2CNC[C@@]2(C(=O)NCc2ccccc2OCc2ccccc2)C1 | inconclusive: 79.4 µM [inhibitor, partial curve, poor fit] | – | –
19 | Cc1cc(C)cc(-c2ccc(CN3CCCC3C(=O)NC(C)C)cc2)c1 (stereo not drawn) | active: 50.1 µM | – | –
20 | O=C(Nc1ccc(Cl)cc1)c1nc2c(o1)CCN(Cc1cc(F)ccc1F)CC2 | inconclusive: 50.1 µM [inhibitor, full curve] | – | –
21 | CCc1nc(C)c(C(=O)N2CCN3C(=O)CNC(=O)C3C2)s1 (stereo not drawn) | – | inactive: -10.2% | –
22 | COc1ccccc1-c1cc(C(=O)NCc2cccs2)nn2cnnc12 | inactive | – | –
23 | CN(Cc1noc2c1CCCC2)Cc1nnc(C2CC(N)C2)n1C (stereo not drawn) | – | – | inactive

Row | Structure (SMILES) | Potency | activity change, negative = cytotoxicity | outcome
24 | CC(=O)N1CCN(C(=O)c2cc(-c3ccc(Cl)cc3Cl)c3nncn3n2)CC1 | – | inactive: -26.8% | –
25 | O=C(Cn1nc2c(cc1=O)CCCCC2)N1CCC(c2ccccc2)CC1 | inconclusive: 89.1 µM [inhibitor, single point] | – | –
26 | Cc1nc(-c2c3n(c(=O)n(CC(=O)Nc4cc(F)ccc4F)c2=O)CCCC3)no1 | – | inactive: 9.05% | –
27 | Cc1ccc(C(=O)N2CCOC(CN(C(=O)c3ccc(F)cc3)C3CCCC3)C2)cc1 (stereo not drawn) | inconclusive: 39.8 µM [inhibitor, partial curve, poor fit] | – | –
28 | COC(=O)N1CCN(c2ccc3nnc(-c4ccccc4)n3n2)CC1 | inconclusive: 79.4 µM [inhibitor, single point] | – | –
29 | Cc1ccc2oc([C@H]3CCN(S(=O)(=O)c4ccc(F)cc4)C3)nc2c1 | inconclusive: 63.1 µM [inhibitor, full curve] | – | –
30 | CCS(=O)(=O)N1CCC(Oc2cccc(C(=O)NCc3ccccn3)c2)CC1 | inconclusive: 56.2 µM [inhibitor, partial curve, poor fit] | – | –
31 | N#Cc1cccc(-c2cn3c(n2)N(C(=O)CC2CCNCC2)CCC3)c1 | inconclusive: 39.8 µM [inhibitor, partial curve] | – | –
32 | c1ccc(CN2CCC[C@H]2c2nc(-c3ccc(N4CCOCC4)nc3)no2)cc1 | active: 89.1 µM | – | –
33 | O=C(Cc1ccsc1)NCCc1noc(-c2ccccc2)n1 | – | inactive: -5.03% | –
34 | O=C(C1CCCN1C(=O)C1CCCC1)N1CCCC(c2nc3ncccc3[nH]2)C1 (stereo not drawn) | – | inactive: 1.38% | –
35 | O=C(Nc1ccc(OC(F)(F)F)cc1)N1CCOC[C@H](Oc2ccccc2)C1 | active: 56.2 µM | – | –
36 | O=C(CC1C(=O)NCCN1Cc1cccc(Oc2ccccc2)c1)NC1CCOCC1 (stereo not drawn) | – | inactive: -46.4% | –
37 | CC1=C[C@@H](CNC(=O)CCC(=O)O)[C@H](C(C)C)C[C@H]1Cc1nc2ccccc2[nH]1 | – | inactive: -14.7% [at 172 µM] | –
38 | CCN1C(=O)COC[C@@H]1[C@H](O)c1ccc(NC(=O)CCc2ccccc2)cc1 | – | inactive: -27.2% [at 172 µM] | –
39 | CC(C)CN1C(=O)c2cccn2CC1CN (stereo not drawn) | – | inactive: -8.81% | –
40 | O=C1CCNc2cc3c(cc2CN1Cc1ccccc1)OCO3 | inconclusive: 56.2 µM [inhibitor, partial curve, poor fit] | – | –
41 | CC(=O)Nc1ccc(C(=O)N2CCC3(CC2)N=C(c2ccc(C)cc2)NO3)cc1 | inconclusive: 39.8 µM [inhibitor, full curve, poor fit] | – | –
42 | Cc1ccc(-n2nc(C)c([C@@H]3C=C[C@@H](NCc4ccc(F)cc4)C3)c2C)cc1Cl | active: 31.6 µM | – | –
43 | O=C(CN1CC2CC(C1)[C@H]1CCCC(=O)N1C2)N1CCN(Cc2ccc3c(c2)OCO3)CC1 (stereo partly drawn) | – | inactive: -17.6% | –
44 | Cc1cccc(-c2nc(Cn3c(-c4ccccc4)nc(C)c(CCO)c3=O)c(C)o2)c1 | active: 79.4 µM | – | –
45 | COc1ccc(-c2nc(-c3ccccc3)nc3c2CN(C(=O)C2CCCC2)CC3)cc1 | active: 35.5 µM | – | –
46 | O=C(C[C@@H]1CCNC[C@@H]1Cc1cc(COc2ccccc2)on1)NCc1ccccc1 | active: 79.4 µM | – | –

Row | Structure (SMILES) | Potency | activity change, negative = cytotoxicity | outcome
47 | COc1ccc(CN2C[C@@H](F)[C@@H](OCc3nc4ccccc4o3)C2)cn1 | inconclusive: 100 µM [inhibitor, partial curve, poor fit] | – | –
48 | COc1cc(F)ccc1CN1CCCCC12Cc1ccccc1CNC2=O (stereo not drawn) | inconclusive: 89.1 µM [inhibitor, partial curve, poor fit] | – | –
49 | FC(F)(F)c1ccc(O[C@H]2COCCN(CC3CCCC3)C2)cc1 | active: 112 µM | – | –
50 | CCCC1CN(Cc2ccc3c(c2)OCO3)C(=O)c2ccc(C)nc2O1 (stereo not drawn) | inconclusive: 28.2 µM [inhibitor, partial curve] | – | –
51 | CN1C(=O)C(CC(=O)NCC2CCN(Cc3ccc(F)cc3)CC2)=C2CCCCC21 (stereo not drawn) | – | inactive: 1.29% | –
52 | O=C1NC2(CCCN(Cc3ccc(OC(F)(F)F)cc3)C2)Oc2ccccc21 (stereo not drawn) | inconclusive: 44.7 µM [inhibitor, partial curve, poor fit] | – | –
53 | COc1cccc(C(=O)N2CCCC(C(=O)N3CCCC3c3nc4ccncc4[nH]3)C2)c1 (stereo not drawn) | – | inactive: -9.16% | –
54 | Cc1ccc(C#N)c(N2CCCC(c3n[nH]c(=O)n3-c3ccccc3)C2)n1 (stereo not drawn) | inconclusive: 89.1 µM [inhibitor, single point] | – | –
55 | CC(=O)N1CCC(C(=O)N2CCC(c3nc4ncccc4[nH]3)C2)CC1 (stereo not drawn) | – | inactive: -1.7% | –
56 | CCc1ccc(CNC(=O)c2ccc(CN3C(=O)NC4(CCOCC4)C3=O)cc2)cc1 | inconclusive: 89.1 µM [inhibitor, single point] | – | –
57 | CC1=C[C@@H](CNCc2ccncc2)[C@H](C(C)C)C[C@H]1Cc1nnc(-c2ccccc2F)o1 | active: 20 µM | – | –
58 | Cn1c(=O)c2ccnn2c2ccc(C(=O)NCC3CCN(Cc4ccccc4F)CC3)cc21 | inconclusive: 89.1 µM [inhibitor, single point] | – | –
59 | CC(C)c1noc(-c2cn(C3CCN(C(=O)c4ccc(OC(F)(F)F)cc4)C3)nn2)n1 (stereo not drawn) | inconclusive: 20 µM [inhibitor, full curve] | – | –
60 | COc1ccc(-c2nnc(C[C@@H]3C[C@@H](C(C)C)[C@H](CNCc4ccncc4)C=C3C)o2)cc1 | active: 25.1 µM | – | –
61 | CCCCN1C(=O)c2ccccc2C(C(=O)NCc2ccccn2)C12CCCCC2 (stereo not drawn) | inconclusive: 79.4 µM [inhibitor, single point] | – | –
62 | COC(=O)N1CCN(C(=O)c2cccc(-c3ccccc3OC)c2)CC1 | active: 63.1 µM | – | –
63 | COC[C@@H]1CN(C(=O)c2ccncc2)C[C@H]1c1ccccn1 | – | inactive: -6.2% | –
64 | O=C(C[C@H]1NC(=O)c2ccccc2NC1=O)Nc1ccc(C(F)(F)F)cc1 | inconclusive: 50.1 µM [inhibitor, partial curve, poor fit] | – | –
65 | COc1ccc(CN2C(=O)[C@@H]3C[C@@H](O)CN3C3(CN(Cc4cnc5ccccc5c4)C3)C2=O)cc1 | – | – | inactive
66 | CN(C)c1ccc(CN2CCC3(Cc4ccccc4NC3=O)C2)cc1 (stereo not drawn) | inconclusive: 100 µM [inhibitor, partial curve] | – | –
67 | COc1cc(Cl)ccc1C(=O)N1CCC[C@H]1c1nc(-c2ccccc2)no1 | inconclusive: 50.1 µM [inhibitor, partial curve, poor fit] | – | –
68 | O=C(Cc1ccsc1)N1CCC2(CC1)CC(N(Cc1ccc(F)cc1)C1CC1)CCO2 (stereo not drawn) | inconclusive: 56.2 µM [inhibitor, partial curve, poor fit] | – | –
